Consider 31 molecules from the antibiotic and cytotoxicity screens of Wong et al. (2023).

Molecules are shown by their SMILES. The list shows a part of the results.

The test relates to HSkMC (human skeletal muscle cells). Description: cytotoxicity call (relative viability < 0.9). As to conditions: 10 µM.
Take `C[C@H]1CN([C@@H](C)CO)C(=O)c2cccc(NC(=O)c3ccncc3)c2O[C@@H]1CN(C)Cc1ccncc1`: the cytotoxicity call was “inactive”.

Consider `C[C@H](CO)N1C[C@H](C)[C@H](CN(C)Cc2ccc(Oc3ccccc3)cc2)OCc2ccccc2-c2c(n(C)c3ccccc23)C1=O`, for which the cytotoxicity call is “inactive”.

In the case of `C[C@@H]1CCCCO[C@@H](CN(C)C(=O)Cc2ccccc2)[C@@H](C)CN([C@@H](C)CO)C(=O)c2cc(NC(=O)Nc3ccc(F)cc3)ccc2O1`, the cytotoxicity call is “inactive”.

For the molecule `C[C@H](CO)N1C[C@H](C)[C@H](CN(C)Cc2ccc3c(c2)OCCN3C)OCc2ccccc2-c2c(n(C)c3ccccc23)C1=O`, the cytotoxicity call was “inactive”.

With `Cc1noc(C)c1S(=O)(=O)Nc1ccc2c(c1)C(=O)N([C@H](C)CO)C[C@@H](C)[C@H](CN(C)C(=O)Nc1ccc3c(c1)OCO3)O2`, the cytotoxicity call is “inactive”.

In the case of `O=C(NO)c1cccc(C(=O)N/N=C/[C@H](O)[C@@H](O)[C@H](O)[C@H](O)CO[C@H]2O[C@H](CO)[C@H](O)[C@H](O)[C@H]2O)c1`, the cytotoxicity call was “inactive”.

Consider `N[C@H](C(=O)O)[C@@H](OCc1ccccc1)C(=O)O`, for which the cytotoxicity call is “inactive”.

As to `CO[C@H]1CN(C)C(=O)c2ccc(NS(C)(=O)=O)cc2OC[C@H](C)N(C(=O)CN(C)C)C[C@@H]1C`, the cytotoxicity call is “inactive”.

For `COc1ccccc1S(=O)(=O)N[C@H]1C=C[C@@H](CC(=O)N2CCN(C)CC2)O[C@@H]1CO`, the cytotoxicity call is “inactive”.

In the case of `C[C@H]1CN([C@@H](C)CO)C(=O)c2cc(C#Cc3ccc(F)cc3)cnc2O[C@@H]1CN(C)CC1CCOCC1`, the cytotoxicity call was “inactive”.

For the molecule `C[C@H](CO)N1C[C@H](C)[C@@H](CN(C)S(=O)(=O)c2cn(C)cn2)Oc2c(NC(=O)c3cnccn3)cccc2C1=O`, the cytotoxicity call was “inactive”.

For `CC(=O)OCC(=O)C1(O)C(OC(C)=O)CC2C3CCC4=CC(=O)C=CC4(C)C3(F)C(O)CC21C` (stereo unspecified), the cytotoxicity call is “inactive”.

For the molecule `Cc1cc(C(=O)NCc2cccn2C)nn1C`, the cytotoxicity call is “inactive”.

Consider `CN1CCN(C(=O)C[C@@H]2CC[C@@H](NC(=O)c3ccc4c(c3)OCO4)[C@@H](CO)O2)CC1`, for which the cytotoxicity call was “inactive”.

Take `N=C(N)Nc1nc2ccccc2[nH]1`: the cytotoxicity call is “inactive”.

On to `C[C@@H]1CN([C@@H](C)CO)C(=O)c2cccc(NS(=O)(=O)c3ccc(Cl)cc3)c2O[C@@H]1CN(C)C(=O)Nc1cccc2ccccc12`, for which the cytotoxicity call was “inactive”.

On to `N[C@@H](CSCCCO)C(=O)O`, for which the cytotoxicity call is “inactive”.

Regarding `C[C@@H]1CN([C@H](C)CO)C(=O)c2cccc(NC(=O)c3ccc(-c4nccs4)cc3)c2O[C@H]1CN(C)C(=O)Nc1ccc(F)cc1`, the cytotoxicity call was “inactive”.

For `COc1ccc(CN(C)C[C@@H]2Oc3ccc(NC(=O)Nc4cccc5ccccc45)cc3CC(=O)N([C@H](C)CO)C[C@@H]2C)cc1`, the cytotoxicity call was “inactive”.

Turning to `COc1cccc(NC(=O)N[C@H]2CC[C@@H](CC(=O)N3CCN(C)CC3)O[C@H]2CO)c1`, the cytotoxicity call was “inactive”.

In the case of `Cc1noc(C)c1NC(=O)Nc1ccc2c(c1)C(=O)N([C@@H](C)CO)C[C@H](C)[C@H](CN(C)Cc1ccccc1)OCCCC[C@H](C)O2`, the cytotoxicity call is “inactive”.

`O=C(C[C@H]1CC[C@@H]2[C@H](COC[C@@H](O)CN2Cc2cc(F)ccc2F)O1)N[C@@H]1CCN(Cc2ccccc2)C1`: the cytotoxicity call was “inactive”.

For the molecule `C[C@@H]1CN([C@H](C)CO)C(=O)c2cc(/C=C/c3ccccc3)cnc2O[C@@H]1CN(C)S(=O)(=O)c1cn(C)cn1`, the cytotoxicity call is “inactive”.

As for `COCC(=O)N1CC(=O)N2[C@H](CO)[C@@H](c3ccc(C#Cc4cccnc4)cc3)[C@H]2C1`, the cytotoxicity call is “inactive”.

As for `C[C@@H]1CN([C@H](C)CO)C(=O)c2cc(NC(=O)Nc3ccc(C(F)(F)F)cc3)ccc2O[C@@H]1CN(C)Cc1ccc2c(c1)OCO2`, the cytotoxicity call was “inactive”.

Regarding `C[C@H]1CN([C@@H](C)CO)C(=O)Cc2cc(NC(=O)Nc3ccccc3)ccc2O[C@@H]1CN(C)C(=O)Nc1ccc(C(F)(F)F)cc1`, the cytotoxicity call was “inactive”.

In the case of `CCCNC(=O)N1C[C@@H](O)COC[C@H]2O[C@@H](CC(=O)NCc3ccncn3)CC[C@@H]21`, the cytotoxicity call was “inactive”.

On to `CC(C)CC#Cc1cnc2c(c1)C(=O)N([C@H](C)CO)C[C@H](C)[C@@H](CN(C)C(=O)CCN1CCCCC1)O2`, for which the cytotoxicity call was “inactive”.

As to `O=C(C[C@@H]1CC[C@@H]2[C@H](COC[C@H](O)CN2C(=O)c2ccc3c(c2)OCO3)O1)NCCN1CCCCC1`, the cytotoxicity call was “inactive”.

In the case of `COc1cc2c(cc1O)CCN[C@]21CS[C@@H]2c3c(OC(C)=O)c(C)c4c(c3[C@H](COC1=O)N1[C@@H]2[C@H]2c3c(cc(C)c(OC)c3O)C[C@@H]([C@@H]1O)N2C)OCO4`, the cytotoxicity call is “active”.

Regarding `CC1(C)OC(=O)C2(C(=O)O1)[C@@H](c1ccc(-c3cccc(-c4ccc(C(=O)O)cc4)c3)cc1)CC(=O)C[C@H]2c1ccccc1`, the cytotoxicity call was “inactive”.
